For 111 compounds, displacement results are on record in PubChem BioAssay AID1240 (Sanford-Burnham Center for Chemical Genomics, 2008).

Hit rate of the full screen: of about 50,000 compounds, about 800 (1.6%) showed an effect of 50% or more. Some of the results follow.

In the experiment the target is Bcl-2-like protein 10 (Homo sapiens) (UniProt Q9HD36). The experiment in a line: Phenotype converters, Bcl-B/TR3 peptide binding displacement, primary biochemical FP (AID 1240).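 Note: 0% = Bcl-B with tracer peptide and DMSO and 100% = tracer peptide lacking Bcl-B.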 Conditions: GST-Bcl-B / FITC-TR3 peptide fluorescence polarization; stronger effect = higher value; compound at 3.75 mg/L.
Chain of UniProt Q9HD36 (Q9HD36 whole entry, looked up): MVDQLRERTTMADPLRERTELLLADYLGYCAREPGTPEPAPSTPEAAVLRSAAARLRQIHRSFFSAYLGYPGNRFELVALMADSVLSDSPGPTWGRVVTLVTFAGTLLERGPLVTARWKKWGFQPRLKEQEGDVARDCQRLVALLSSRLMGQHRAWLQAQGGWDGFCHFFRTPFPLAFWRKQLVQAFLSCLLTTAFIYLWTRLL
For the compound `C=CCNC(=O)c1ccc(CN(c2cccc(Cl)c2)S(C)(=O)=O)cc1`, the displacement turned out to be 9.4%.
The figure for `CCCCOC(=O)CCCN1C(=O)/C(=C/c2ccccc2)SC1=S` is 45.9%; for `CC1=C(C(=O)Nc2cccc(Cl)c2C)C(c2cccc([N+](=O)[O-])c2)NC(=O)N1` (stereo unspecified) it is -8.4%; for `Cc1[nH]n(-c2ccccc2)c(=O)c1C=Nc1ccc(Br)cn1` it is 6.5%.
The same measure for `C=CCN1C(=O)/C(=C\c2c(Cl)cccc2Cl)SC1=S`: 3.9%; for `CC(=O)NC1=NC(=O)/C(=C/c2cc(Cl)ccc2OCc2c(F)cccc2Cl)S1`: 112%.
The same measure for `CN(C)c1ccc(/C=N/Nc2ncnc3c2cnn3Cc2ccccc2)cc1`: 5.7%; for `O=C(N/N=C/c1ccc(-c2cc(C(F)(F)F)ccc2Cl)o1)c1ccncc1`: 1.2%; for `COc1ccc(-c2cnc(NC(=O)/C=C/c3cccs3)s2)cc1`: -44.7%.
Turning to `NS(=O)(=O)c1cccc(NC(=O)COc2ccc(Br)cc2)c1`, the displacement was -2.2%.
The figure for `COc1cccc(OC)c1C(=O)Nc1ccccc1C(F)(F)F` is -5.4%; for `CC(=O)NC1=NC(=O)/C(=C/c2ccc(C)cc2)S1` it is 118%; for `Cn1c2c(c(=O)[nH]c1=O)C(c1ccc(Cl)cc1)C1=C(N2)c2ccccc2C1=O` (stereo unspecified) it is 1.2%.
The figure for `O=C1Nc2ccccc2C12NN=C(c1ccccc1)S2` (stereo unspecified) is -10.6%; for `COc1ccc(N(CC(=O)N2CCCCCC2)S(=O)(=O)c2ccccc2[N+](=O)[O-])c(OC)c1` it is -5.7%.
`O=C(Nc1ccccc1C(=O)NC1CCCCC1)c1ccccc1`: the displacement stood at 0.8%.
For `C=CCc1cc(/C=C2\C(=O)NC(=O)N(c3ccc(Br)c(C)c3)C2=O)cc(OC)c1O`, the displacement is -23.5%.
The figure for `O=C(NCc1ccc(Cl)cc1)C(=O)Nc1ccc([N+](=O)[O-])cc1` is 9.4%; for `O=C1c2ccccc2NC(c2ccc(O)cc2)N1Cc1ccco1` (stereo unspecified) it is 13.9%; for `Cc1nc2ccccc2n1CCOc1ccc(Cl)cc1` it is 5.5%.
The figure for `COc1ccc(/C=C/C(=O)Nc2ccc(-c3ccccc3)cc2)cc1OC` is 0.1%.
The figure for `O=C(NCCCc1ccccc1)C1(c2ccccc2)CCCC1` is -2.3%; for `Cc1cccc(NC(=O)CSc2nnc(NC(=O)CN3CCOCC3)s2)c1` it is -8%; for `CCOc1ccc(-c2c(C)sc(N)c2C(=O)OC(C)C)cc1` it is -9.2%.
For `COc1ccccc1C(=O)NNC(=O)C(c1ccccc1)c1ccccc1`, the displacement turned out to be 0%.
As to `COc1cc(/C=N/NC(=O)c2cccnc2)ccc1OC(=O)c1cccc(Br)c1`, the displacement came to 14.1%.
With `CC1=C(C(=O)Nc2ccc(Cl)cc2)C(c2cccc(Br)c2)NC(=O)N1` (stereo unspecified), the displacement was -7.6%.
In the case of `O=C(Nc1ccc(O)c(-c2nc3ccccc3s2)c1)c1cccc(Cl)c1Cl`, the displacement is 3.4%.
The figure for `Cc1nnc(NC(=O)c2ccc(Oc3ccccc3)cc2)s1` is 8.1%.
The figure for `Cc1c(C(=O)O/N=C(\N)c2ccc(Br)cc2)cccc1[N+](=O)[O-]` is 13.4%.
The figure for `O=C(C(c1ccccc1)c1ccccc1)N1CCN(C2CCCC2)CC1` is -18.5%.
Take `COc1ccc(Cl)cc1NC(=O)C1=C(C)NC(=S)NC1c1ccc(OC)c(OC)c1` (stereo unspecified): the displacement came to 17.6%.
The figure for `COc1cccc(C(=O)Nc2cccc(Cl)c2C)c1` is -11.6%.
The same measure for `CC(=O)Nc1ccccc1NC(=O)COc1ccc(Br)cc1`: 1.8%; for `CCOc1ccc(NC2=C(Cl)C(=O)N(c3ccccc3)C2=O)cc1`: 9.2%; for `C#CCSc1nnc2c3ccccc3n(CC=C)c2n1`: -8.9%.
Take `O=C(Nc1cccc(Cl)c1)N1CCN(Cc2ccc3c(c2)OCO3)CC1`: the displacement was 7.8%.
On to `CC1CC(C)CN(C(=O)c2ccc(Cl)cc2Cl)C1` (stereo unspecified), for which the displacement is -3.8%.
The same measure for `O=C1C(Cl)=C(c2ccc(Cl)cc2)C(=O)N1c1ccc(Cl)cc1`: 7.1%; for `CCN(CC)c1ccc(N2C(=O)c3ccc4c5c(ccc(c35)C2=O)CC4)cc1`: -4.9%; for `O=S(=O)(c1cccc2cccnc12)N1CCN(C/C=C/c2ccccc2)CC1`: -2.5%.
On to `FC(F)(F)c1ccccc1/C=N\N1CCN(c2ccccc2)CC1`, for which the displacement was -4.5%.
The figure for `Cc1nn(-c2ccccc2)c2c1C(O)n1c(nc3ccccc31)S2` (stereo unspecified) is 11.6%; for `CCC(=O)Nc1ccc(N2CCN(C(C)=O)CC2)cc1` it is 12.9%; for `COc1ccc(CCNC(=O)C(=O)NCC2CCCO2)cc1OC` (stereo unspecified) it is 6.7%.
The figure for `COc1ccc2c(c1)-c1c(sn(-c3ccc(C)c(C)c3)c1=S)C(C)(C)N2` is 3.7%; for `Cc1cccc(N2C(=O)CC(SC(=N)N3N=C(c4cccs4)CC3c3ccc(Br)cc3)C2=O)c1` (stereo unspecified) it is 5.6%; for `COC(=O)CCC(=O)Nc1c(C)cc(C)cc1C` it is 10.7%.
The figure for `S=C(S)N(CCN(Cc1cccs1)C(=S)S)Cc1cccs1` is 15.9%.
In the case of `COc1ccccc1-c1nnc(-c2sc3cc(Cl)ccc3c2Cl)o1`, the displacement stood at 7.3%.
Consider `COCCCNC(=O)c1cc(Cl)ccc1Cl`, for which the displacement is 0.8%.
The figure for `Cc1onc(-c2c(Cl)cccc2Cl)c1C(=O)NCCc1ccccc1` is 2.7%; for `CCN(CC)c1ccc(NC(=S)Nc2ccccc2)cc1` it is -9.4%; for `CCNC(=S)NCCc1ccc(S(N)(=O)=O)cc1` it is 16.6%.
The figure for `Cc1cccc(N2C(=O)/C(=C/c3ccc(N(C)C)cc3)SC2=S)c1` is -5.4%; for `Cc1ccc2nc(/C(C#N)=C/c3cc4c(cc3[N+](=O)[O-])OCO4)[nH]c2c1` it is -10.2%.
The figure for `O=C(NCCCOC(=O)c1ccccc1Br)c1ccccc1Br` is -2.7%; for `O=C(Nn1cnnc1)c1ccc(F)cc1` it is -5.3%.
Turning to `Cc1ccc(C(C)C)c(OC(=O)/C=C/c2ccc([N+](=O)[O-])s2)c1`, the displacement stood at 1%.
The same measure for `O=C(/C=C(\Cl)c1ccc([N+](=O)[O-])cc1)c1ccccc1`: 3.4%; for `O=C(O)C1C2CCC(O2)C1C(=O)NCc1ccco1` (stereo unspecified): -5%.
The figure for `CCc1ccccc1NC(=O)c1c(NC(=O)c2ccccc2Cl)sc2c1CCC2` is 61.2%; for `COc1ccc2nc(SCC(=O)Nc3ccccc3F)[nH]c2c1` it is 21%.
The figure for `CN1CCN(CCOCCOc2cccc3ccccc23)CC1` is -6%.
Take `Cc1c(Br)c([N+](=O)[O-])nn1CC(=O)N1CCN(C)CC1`: the displacement was -9.3%.
The figure for `COc1cc(NC(=O)COc2ccc(Br)c(C)c2)cc(OC)c1` is -3.8%.
The figure for `O=C(NCCN1CCN(Cc2ccccc2)CC1)C(=O)Nc1ccc(Cl)cc1` is 10.9%; for `Cc1ccccc1CN1CCN(S(=O)(=O)c2ccc(Cl)cc2)CC1` it is -2.3%.
The figure for `CCOC(=O)c1c(C)sc2c1N(C(C)=O)c1cc(Br)ccc1S2` is -6%; for `CC(C)(C)C(=O)Nc1cccc(-c2nnc(-c3ccco3)o2)c1` it is 11.2%; for `CCOC(=O)c1c(-c2ccc(Br)cc2)csc1NC(=O)c1ccc(OCC)c(OCC)c1` it is -6.6%.
As for `CCc1nc2ccccc2n1CC(O)COc1ccc(C(=O)O)cc1` (stereo unspecified), the displacement was -7.3%.
For `O=C(/C=C/c1ccco1)Nc1ccccc1C(=O)O`, the displacement stood at 17%.
Regarding `O=S(=O)(c1ccc(C2=CSC3=NCCN23)cc1)N1CCCCC1`, the displacement is -1.6%.
The figure for `COc1cc(/C=C2\C(=O)N(c3cccc(C(=O)O)c3)N=C2C)c([N+](=O)[O-])cc1OC` is -2%.
For the compound `COc1ccc(C(=O)Oc2ccc(C(=S)N3CCC(C)CC3)cc2OC)cc1`, the displacement was -9.2%.
The figure for `CC(=O)c1ccc(NC(=O)C2CCC(C)(C(=O)O)C2(C)C)cc1` (stereo unspecified) is -1.2%; for `N#CC1=C(N)C(C#N)(C#N)C(c2ccc(Cl)cc2Cl)C2CCCC=C12` (stereo unspecified) it is 15.2%; for `CC(=O)Nc1ncc(Cc2ccc(Cl)cc2Cl)s1` it is 3.7%.
The same measure for `CCc1cccc(C)c1NC(=O)CCC1CCCC1`: -10.9%; for `CC1CC(Nc2ccccc2)c2ccccc2N1C(=O)Cc1cccc2ccccc12` (stereo unspecified): -5%.
The figure for `CCOc1ccc(N(CC(=O)OC)S(=O)(=O)c2ccc(Cl)cc2)cc1` is 10.8%.
Take `Cc1ccc(Sc2c(C)nn(C(=O)c3ccco3)c2C)cc1`: the displacement is -3.2%.
The figure for `Cc1ccc(CN2CCN(/N=C/C=C\c3ccco3)CC2)cc1` is 18.6%; for `Cc1cc(-c2ccc(F)cc2)nc2cc(C(N)=O)nn12` it is 2.7%.
The same measure for `COC(=O)c1cc(Cl)c(NC(=O)C(c2ccccc2)c2ccccc2)cc1OC`: -16.6%; for `COCCN1C(=O)c2ccc3c4c(ccc(c24)C1=O)CC3`: 8.2%.
The figure for `Cc1c(C(=O)Nc2ccc(NC(=O)c3ccc(Br)cc3)cc2)cccc1[N+](=O)[O-]` is 0.4%; for `Cc1ccccc1NCn1c(=S)oc2ccccc21` it is 8.3%.
Consider `COc1ccc(S(=O)(=O)n2nc(C)c(Sc3ccc([N+](=O)[O-])cc3)c2C)cc1`, for which the displacement is 9.9%.
In the case of `Cc1cc(OCC(=O)NC2CCCCCCC2)ccc1Br`, the displacement is 2.5%.
On to `O=C1NC(=O)N(c2ccccc2F)C(=O)/C1=C/c1ccc(Sc2ccccc2)o1`, for which the displacement was -8.7%.
The same measure for `c1ccc(-n2ncc3c(N4CCN(C5c6ccccc6-c6ccccc65)CC4)ncnc32)cc1`: 4.3%; for `Cc1cc(-c2ccc(/C=c3\sc4nc5ccccc5n4c3=O)o2)c(C)c([N+](=O)[O-])c1`: 6.6%; for `COCCNC(=O)CN(c1cc(OC)ccc1OC)S(C)(=O)=O`: 6.9%.
The same measure for `O=C(Nc1ccc2oc(-c3ccncc3)nc2c1)c1cccnc1`: 61.6%.
The same measure for `CCOc1cccc(-c2cc(C(=O)N3CCCCCC3)c3ccccc3n2)c1`: -10.2%; for `CCNC(=O)CC1S/C(=N\N=C(/C)c2ccccc2)NC1=O` (stereo unspecified): 14.6%; for `COC(=O)C1=C(C)N(C)C(C)=C(C(=O)OC)C1c1ccccc1Br`: -3.8%.
As to `COc1nc(-c2ccccc2)c2cc(C)ccc2n1`, the displacement was -0.4%.
The same measure for `COc1ccc(N2C(=O)/C(=C\c3ccc(-c4cccc(C(F)(F)F)c4)o3)SC2=S)cc1`: 6.6%.
Turning to `CCn1c(/C=N/n2cnnc2)nc2ccccc21`, the displacement is 9.8%.
As to `CCN(CC)C(=O)c1ccccc1-c1ccccc1C(=O)O`, the displacement was -5.3%.
The figure for `CCCCOC(=O)c1cccc(NC(=O)c2ccccc2Br)c1` is -8.9%; for `Cc1c([N+](=O)[O-])c([N+](=O)[O-])nn1CC(=O)N1CCOCC1` it is -5.6%; for `CCOc1ccc(S(=O)(=O)N(CC(=O)OC)c2ccc(C)cc2)cc1` it is 9.1%.
The figure for `COc1cc(/C=C2/SC(=S)N(CCC(=O)Nc3ccc(C(=O)O)cc3)C2=O)cc(OC)c1OC` is 7.9%; for `COc1cc(C(=O)Nc2ncc3c(n2)CC(C)(C)CC3=O)cc(OC)c1OC` it is 0.8%; for `CC(=O)Nc1ccccc1NC(=O)c1ccccc1I` it is 5.4%.
On to `O=C(N/N=C/c1ccc(Cl)cc1)c1ccccc1F`, for which the displacement came to 2.6%.
On to `Cc1ccc(NC(=O)c2cccs2)cc1C`, for which the displacement was 1.6%.
